This note sets out measurements from the supplement of paper PMC12632987.

Whole data set: some 4,500 sequences, median “median log2 fold change of GCK-ALFA target abundance (FLAG IP / Myc IP barcode read proportion)” near 0.078, cut for the lowest 2% near -0.6. Some of the results follow.

B1: GBRAP_137_3660 (protein)
chain: MKVKVEAKLDGDFGEVKIEAENEEVALEAADIAIDVARETGVNAAISVDKEEKTVYVDLIGDREKLEAFLKELVERLSEKYDVEVTVEEDGKVTKEEVKK
B2: GBRAP_160_4730 (protein)
chain: KERIKEFAEEAREIFKKAVEDSKNESKEEAAALFRGAAGEVLMDVMEDERFTDEQEETAAKILDELVKELEANWDASEEEKKKIVDEKIKELLEELLKIK
B3: GBRAP_184_5099 (protein)
chain: KVLVRKVEAKTKEEALKKIREVLEEAAAAGADLILLLKLENISEEEIVEIVREIGERARELGIPRVTLGIENDLSEETIDKLIKIADELGINLVLAIPEE
B4: GBRAP_125_3002 (protein)
chain: AKEAAAAQMRTIALAAGFSESLAAELARLVLAGSVRNALAAFALALGNEEAAELIEKLTEEQAAAVVAELAAIAEEEGPMSEEEMAERLLKIAKEALAKQ
B5: GBRAP_42_5731 (protein)
chain: KLAVTLEIVADTQEEAKAMVEEALKEDERLEKERGVIIRIEVAVPEGLSPEIKAMEKESEERAKEADAESDWVGVANTVEEVPKMIEAVVDIALEELEEK
B6: GBRAP_125_3008 (protein)
chain: GMEEVAEALGRIARRLGFSEEEVEELKRLALEHGIKGTFYALFKALGLDELADLVEKLTEEEVKEVVREVAAALEENPDLTPEEVVALIKEVLEKALAKK
B7: GBRAP_35_5625 (protein)
chain: NTNKEIAEATVAVMEDTLLAVDEVPAETFIDTAIKVAKAGIEVAKELKDDKENAKKILEAVKELLEAALKKAEETGAPEEKIKELKELLKEVEELEKKLK
B8: GBRAP_26_5459 (protein)
chain: MEEAEREAEERVREIAAELPDPRVAAAVVAEFSTELLEAEERIEAGEDPEEAFDEAEEEFLEFVRELMEEAGLSEEEIEEFLRKLREVFDELREKVLELL
B9: GBRAP_52_6332 (protein)
chain: SMEEVKKLAEELYKAIVAGDEEKAKKLAEEAVKKLSSEEILELAKIVAEKVSKEDYEVKVRAAEVFEYLAELVEKERGDERTAAEILGIYARTLYAAEQA
B10: GBRAP_160_4151 (protein)
chain: MEELEKLIKEIKEIAEEAIKMMEGESTEEAKNIAKVALGEIVLLVESSEAVSEEVKEKVGKIADEAEAYLDANPDASVEEIKEKLKEATEKVIKILKESK
B11: GBRAP_11_2698 (protein)
chain: KKEQLKEAAELAEELAKVLDQLIKEGPDNEELRKKAEELLEKITELTKKYGDEGAKKLTEIIKELWKKAQEDKENQVEYLKQARAAARVLAGQYLLEIEE
B12: GBRAP_11_2620 (protein)
chain: SKETLKELAKLAKEAAKAVEELLKVGVDDEELQKKIEKLLKELAELVKKHGSEADKKDVEIAKELFKKAKEDKENKEQYYKELLAALRVFEGDYLLDIEE
B13: GBRAP_125_3130 (protein)
chain: SEEEVLKNLALFLKAMGESEDDIAEAVEIARKHGVKGTMYAFALAQGWEELAEEVEKLTEEEVKEVLKELAKELEANPDLTPEEVKELALELARKKLAAR
B14: GBRAP_150_3916 (protein)
chain: DLETLLTIADTALDLVEAILEGHLELLPHAVKLAEDALEEAKEITEEVKELAKKALDKLKKAEKLVKEGAPLEEIKKEAKEAAEYLKELIKEIEKLIKEE
B15: GBRAP_83_6925 (protein)
chain: KEKITVAANKDHIEEAAEAAIDLHKNEGYEVDLEFIITKESVPKLLKAFEKLAKAGLNSNVTVLAEGMTEEEAEALKKELEAIAKKYGVNWKVEVYLIEP
B16: GBRAP_74_6531 (protein)
chain: DAALLAALEAAAEAKDFARAIALTREALATGSRETKIRALAILTAAFTAHADEMTAEEVDAAVDVIVEAELVLEDEDITPELAAGMAVIVAKGVELEKEA
B17: GBRAP_9_7153 (protein)
chain: MEELLEKVREVIEDAFEEISKVVPEEVKPVVEELREEAEERFEELREDENITPEEIKEEALEILKELRERLSKLVSPEIAKMVDAIVDTAELEIEELYEE
B18: GBRAP_160_4095 (protein)
chain: MEKVEELIEEIDELRDETIEMIEGEDIAQRATILRGFGGDVLMLLFESGIVSEETEDFADEEFDDLVETVEANPDLTLEEIKALLDEVVEAVKEKIKENG
B19: GBRAP_184_5262 (protein)
chain: KVLERVVRAENVEELRKKLAEIREEALATGADVIILLEVEELTEEMIDALFEELKELREAGYKGEIVVGIDADLTEEMIDYVLEKADEAGVKVVLEIDEE
B20: GBRAP_160_4814 (protein)
chain: MEKVEKKLKEAEERLLETAEASKDLPVAERAKLLEAEGYTEILDLEEELNLSDETVDKLVKIVDDMVATLLANPDLTDEEVLALVREAAEKIRKEVLKEA
B21: GBRAP_160_4168 (protein)
chain: SSLLEEAKKEIEEIFEETIKMIEGQTAEERAAIVRVAFGEIILLLEEKGLLTDELDEKIEEIEDELVNWILENPDLTDEEIKEKIEEALEKIKKALEESS
B22: GBRAP_160_4045 (protein)
chain: SEAAEKAAEESERLFDETIELMRDLTPEEAAVAMDVTVGEAIMEVVELGIEVTPEMAAVADEARALRDAVLADPSTTVEEVIARARELRERFVAAIRAQA
B23: GBRAP_160_4143 (protein)
chain: SEELKKLIEEIREITEEALELIEGESPAEAKTIARVALGEIVMLVDSSEAVSEETKEKVGKVADEAEAKLRANPDASVEEVKALLREATEKVVKILEEEI
B24: GBRAP_64_6491 (protein)
chain: MEEIEKLLEELEKLVEELLKAVADLSEELQEKVQEVLELVKEAKEASLEERLDLVVEAAKLLNEILKNPELTEEQKELAGLALDKANELAWELFEELEKE
B25: GBRAP_128_3535 (protein)
chain: SLEEVRAYAAAVVDEIKASDVATARAITKAWLERLKTWSLEEVEAAVDVLIERLPELTAEKLDAVADAIRENRGTLTPEKQRLVNGVEVEALNLAEELEE
B26: GBRAP_125_3128 (protein)
chain: MEEEDLEDLARLLRALGFSEEDVEEAVELARRFSIRGTLVAAALAEGWEELADALAKLSEEQTREVVRRTVEALDANPGLSPEEVRELLLRLAREAVAAS
B27: GBRAP_184_5151 (protein)
chain: TTVHRSVEAETVEEGIKKAREALEEAKAAGEKLVLHLDAKGLSVEEVEELMKEVVRLAKEAGLEDAQIVVHVEADEEEADKLIEIADKLGVKLVVALLEE
B28: GBRAP_160_4696 (protein)
chain: SETKEKLKKFVDEELEKAKEMIKGETIEQRAVIVSGTGGEILMEFVEEEEVTDELEDEVLKIIDETVEYILANPNLTDEEMKELIDEMKEKIKEAIDKHL
B29: GBRAP_160_4652 (protein)
chain: SAEVEKLIEEIAAEFDEAVAMMKGESHENRVAIAQDMRGRVLLLLEESPLVSEEAEEEVDKILDELVATIAANPDLTDAELAALFEEALAKIKEALEKHS

Chain of GABARAP, O95166 (O95166 whole entry, the tested form may be a part): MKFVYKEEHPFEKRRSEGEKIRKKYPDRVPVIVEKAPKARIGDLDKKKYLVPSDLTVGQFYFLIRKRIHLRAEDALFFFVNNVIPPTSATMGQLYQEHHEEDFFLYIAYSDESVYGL

The assay has as its target GABARAP, O95166. Kind of assay: median log2 fold change of GCK-ALFA target abundance (FLAG IP / Myc IP barcode read proportion) (log2 ratio); each designed protein is fused to an ALFA-tag nanobody in HEK293 cells to bring the named protein to FLAG-tagged glucokinase (GCK); Myc marks an untargeted standard; higher = target protein stabilised (more abundant). The settings on record: target protein: 3xFLAG-MCP-GCK-ALFA reporter; HEK293 landing pad (RPLP). In outline:
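Sequencing of reverse-transcribed, amplified circular RNA barcodes from anti-FLAG and anti-Myc immunoprecipitates provided the readout for an ALFA-nanobody-fused binder library recombined into HEK293 landing-pad cells. Those cells were induced with 2 μg mL^−1 doxycycline, transfected with a plasmid expressing a FLAG-tagged target and a Myc-tagged standard, and lysed after 48 h. Target abundance is the per-binder median log2 ratio of FLAG to Myc barcode read proportions. Only barcodes at a proportion of ≥10^−7 in both replicates and binders with ≥3 barcodes per replicate were kept, with a 10^−6 pseudocount added before the two replicates were pooled.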
Take B1: the “median log2 fold change” value was 0.195.
On to B2, for which the “median log2 fold change” value came to 0.317.
With B3, the “median log2 fold change” value is -0.1.
Turning to B4, the “median log2 fold change” value is 0.159.
Consider B5, for which the “median log2 fold change” value was found to be 0.0102.
For B6, the “median log2 fold change” value was found to be 0.0823.
In the case of B7, the “median log2 fold change” value is -0.0947.
Consider B8, for which the “median log2 fold change” value is -0.266.
As to B9, the “median log2 fold change” value was found to be 0.177.
Consider B10, for which the “median log2 fold change” value is 0.325.
For B11 the value was 0.135; for B12, 0.183.
The value for B13 was 0.265.
Consider B14, for which the “median log2 fold change” value was -0.223.
For B15 the value was 0.166.
The value for B16 was 0.214; that for B17 was 0.157; that for B18 was -0.245.
As for B19, the “median log2 fold change” value was -0.0412.
B20: the “median log2 fold change” value is -0.0227.
With B21, the “median log2 fold change” value is -0.0907.
The value for B22 was 0.116; that for B23 was 0.0641.
For B24 the value was -0.116; for B25, 0.253; for B26, -0.258.
For B27, the “median log2 fold change” value worked out at 0.102.
For B28 the value was -0.431; for B29, 0.239.
